In all, about 310,000 compounds went through this assay and about 2,200 (0.71%) showed an effect of 50% or more. Effects have a minus sign here. The list shows a part of the results.

The experiment deals with human ether-à-go-go-related gene (hERG) potassium channel (human, UniProt Q12809). Description: primary screen, population patch clamp on CHO cells stably expressing hERG.
human ether-à-go-go-related gene (hERG) potassium channel, sequence (Q12809 whole entry, looked up): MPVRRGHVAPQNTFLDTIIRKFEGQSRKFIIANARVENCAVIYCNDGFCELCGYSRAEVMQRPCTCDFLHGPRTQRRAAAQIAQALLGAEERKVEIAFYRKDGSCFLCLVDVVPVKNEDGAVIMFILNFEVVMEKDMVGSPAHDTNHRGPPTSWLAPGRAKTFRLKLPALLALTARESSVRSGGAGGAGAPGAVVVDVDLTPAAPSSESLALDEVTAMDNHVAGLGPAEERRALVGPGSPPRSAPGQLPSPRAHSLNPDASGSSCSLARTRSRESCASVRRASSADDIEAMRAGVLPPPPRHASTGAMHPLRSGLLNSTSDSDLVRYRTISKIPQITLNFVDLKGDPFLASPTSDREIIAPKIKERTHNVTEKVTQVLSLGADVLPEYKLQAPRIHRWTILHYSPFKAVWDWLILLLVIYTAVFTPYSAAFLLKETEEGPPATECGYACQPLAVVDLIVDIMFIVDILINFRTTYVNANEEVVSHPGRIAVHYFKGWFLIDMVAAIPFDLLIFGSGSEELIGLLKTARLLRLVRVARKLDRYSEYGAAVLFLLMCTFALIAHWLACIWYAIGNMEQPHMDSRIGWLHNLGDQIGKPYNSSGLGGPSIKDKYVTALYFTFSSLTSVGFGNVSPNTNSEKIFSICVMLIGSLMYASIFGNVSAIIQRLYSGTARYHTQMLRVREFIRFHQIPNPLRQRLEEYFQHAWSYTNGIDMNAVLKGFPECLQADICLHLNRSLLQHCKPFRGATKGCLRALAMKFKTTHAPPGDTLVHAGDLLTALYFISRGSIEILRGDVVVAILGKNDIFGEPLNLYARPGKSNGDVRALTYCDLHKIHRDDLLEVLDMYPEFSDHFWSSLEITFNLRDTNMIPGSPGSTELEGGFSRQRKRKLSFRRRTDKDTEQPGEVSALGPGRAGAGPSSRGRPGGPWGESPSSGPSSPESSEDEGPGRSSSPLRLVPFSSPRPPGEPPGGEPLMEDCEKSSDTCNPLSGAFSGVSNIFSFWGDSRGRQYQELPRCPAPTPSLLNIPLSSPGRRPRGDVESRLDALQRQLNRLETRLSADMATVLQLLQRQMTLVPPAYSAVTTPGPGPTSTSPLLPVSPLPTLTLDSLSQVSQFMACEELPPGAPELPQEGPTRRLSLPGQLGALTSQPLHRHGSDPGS
`COc1ccc(N=C2S/C(=C\c3ccc(C)o3)C(=O)N2CC(C)C)cc1`: the “hERG current change (%, negative = inhibition) at 1uM” value was found to be 14.5%.
Consider `CCO[C@H]1OC(C(=O)NCc2ccccc2)=C[C@@H](c2ccc(C(F)(F)F)cc2)[C@@H]1CCCO`, for which the “hERG current change (%, negative = inhibition) at 1uM” value amounted to 13.1%.
With `O=C(NCC1(c2ccccc2)CCCC1)c1ccc(Br)o1` the figure was 17.8%; with `Cn1c(=O)n(C)c2cc([N+](=O)[O-])c(N3CCN(C(=O)c4ccc(F)cc4)CC3)cc21`, -6.22%.
`CCc1c(C)nc2c(C#N)c[nH]n2c1=O`: the “hERG current change (%, negative = inhibition) at 1uM” value is listed as 23%.
Turning to `CCS(=O)(=O)c1ccc2oc(SCC(=O)NCc3ccccc3)nc2c1`, the “hERG current change (%, negative = inhibition) at 1uM” value is -12.6%.
The value for `COc1ccccc1NC(=O)CSc1ncnc2c1oc1ccccc12` was 10.2%.
With `N#CC1=C(N)Oc2cc(N)ccc2C1C1CCCCC1` (stereo not shown) the figure was 7.89%; with `CCC/C(O)=C1\C(=O)CCCC1=NCCc1c(C)[nH]c2ccc(C)cc12`, 11.1%; with `CCOC(=O)c1ccc(-c2ccc3c(c2)CCC3)nc1C`, 16%.
As to `COc1ccc(NC(=O)CCc2c(C)nn(-c3ccc(N4CCOCC4)nn3)c2C)cc1`, the “hERG current change (%, negative = inhibition) at 1uM” value is listed as 2.56%.
On to `COC(=O)C1=C(NC(=O)c2ccccc2[N+](=O)[O-])CCS1`, for which the “hERG current change (%, negative = inhibition) at 1uM” value worked out at 11.1%.
With `CCO[C@H]1OC(C(=O)O)=C[C@@H](C(C)(C)C)[C@@H]1CCCO` the figure was 9.3%.
`CCOc1cc(C(c2c(C)[nH][nH]c2=O)c2c(C)[nH][nH]c2=O)cc([N+](=O)[O-])c1O`: the “hERG current change (%, negative = inhibition) at 1uM” value worked out at 12.5%.
In the case of `O=C(CCS(=O)(=O)c1ccccc1)Nc1nnc(C(F)(F)F)s1`, the “hERG current change (%, negative = inhibition) at 1uM” value was 13.2%.
The value for `N#C/C(=N\Nc1ccc(Br)cc1)C(=N)N1CCOCC1` was -16%.
Consider `CCCNc1nc(NCC)nc(OC)n1`, for which the “hERG current change (%, negative = inhibition) at 1uM” value is 23.8%.
For `CN1CCN(C(=O)c2ccc(N(Cc3ccccc3Cl)S(C)(=O)=O)cc2)CC1`, the “hERG current change (%, negative = inhibition) at 1uM” value turned out to be 11%.
With `O=C(Nc1ccc(F)c([N+](=O)[O-])c1)N1C[C@H]2C[C@@H](C1)c1cccc(=O)n1C2`, the “hERG current change (%, negative = inhibition) at 1uM” value turned out to be 13.9%.
`CCCCCCC(=O)N(O)C1CC(=O)N(c2ccc(C)cc2)C1=O` (stereo not shown): the “hERG current change (%, negative = inhibition) at 1uM” value was 8.07%.
For the compound `N#Cc1ccc(COc2cccnc2[N+](=O)[O-])cc1`, the “hERG current change (%, negative = inhibition) at 1uM” value turned out to be 4.44%.
Take `Cc1c(C)c2ccc(OCC(=O)Nc3ccccn3)c(C)c2oc1=O`: the “hERG current change (%, negative = inhibition) at 1uM” value amounted to 10.8%.
With `Cc1nn(CC(=O)Nc2nnc(CC(=O)N3CCCC3)s2)c(=O)c2ccccc12` the figure was 11.5%; with `CC(C)NCc1cc(Br)ccc1OCc1ccccc1.Cl`, -9.35%; with `CCOc1cccc(CN2CCCC(N3CCc4ccccc4C3)C2)c1O` (stereo not shown), -7.07%.
